Laboratory results taken from PMC4336329 (PLoS ONE, 2015).
In all, about 310,000 compounds went through this assay and about 14,000 (4.5%) showed an effect of 50% or more. The effect is printed as a negative number. This is one part of the list.

biological target: human ether-à-go-go-related gene (hERG) potassium channel (human, UniProt Q12809); experiment: primary screen, population patch clamp on CHO cells stably expressing hERG
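Further: peak tail current of the secondary pulse compared with the same well before compound.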

Chain of human ether-à-go-go-related gene (hERG) potassium channel (Q12809 whole entry, looked up): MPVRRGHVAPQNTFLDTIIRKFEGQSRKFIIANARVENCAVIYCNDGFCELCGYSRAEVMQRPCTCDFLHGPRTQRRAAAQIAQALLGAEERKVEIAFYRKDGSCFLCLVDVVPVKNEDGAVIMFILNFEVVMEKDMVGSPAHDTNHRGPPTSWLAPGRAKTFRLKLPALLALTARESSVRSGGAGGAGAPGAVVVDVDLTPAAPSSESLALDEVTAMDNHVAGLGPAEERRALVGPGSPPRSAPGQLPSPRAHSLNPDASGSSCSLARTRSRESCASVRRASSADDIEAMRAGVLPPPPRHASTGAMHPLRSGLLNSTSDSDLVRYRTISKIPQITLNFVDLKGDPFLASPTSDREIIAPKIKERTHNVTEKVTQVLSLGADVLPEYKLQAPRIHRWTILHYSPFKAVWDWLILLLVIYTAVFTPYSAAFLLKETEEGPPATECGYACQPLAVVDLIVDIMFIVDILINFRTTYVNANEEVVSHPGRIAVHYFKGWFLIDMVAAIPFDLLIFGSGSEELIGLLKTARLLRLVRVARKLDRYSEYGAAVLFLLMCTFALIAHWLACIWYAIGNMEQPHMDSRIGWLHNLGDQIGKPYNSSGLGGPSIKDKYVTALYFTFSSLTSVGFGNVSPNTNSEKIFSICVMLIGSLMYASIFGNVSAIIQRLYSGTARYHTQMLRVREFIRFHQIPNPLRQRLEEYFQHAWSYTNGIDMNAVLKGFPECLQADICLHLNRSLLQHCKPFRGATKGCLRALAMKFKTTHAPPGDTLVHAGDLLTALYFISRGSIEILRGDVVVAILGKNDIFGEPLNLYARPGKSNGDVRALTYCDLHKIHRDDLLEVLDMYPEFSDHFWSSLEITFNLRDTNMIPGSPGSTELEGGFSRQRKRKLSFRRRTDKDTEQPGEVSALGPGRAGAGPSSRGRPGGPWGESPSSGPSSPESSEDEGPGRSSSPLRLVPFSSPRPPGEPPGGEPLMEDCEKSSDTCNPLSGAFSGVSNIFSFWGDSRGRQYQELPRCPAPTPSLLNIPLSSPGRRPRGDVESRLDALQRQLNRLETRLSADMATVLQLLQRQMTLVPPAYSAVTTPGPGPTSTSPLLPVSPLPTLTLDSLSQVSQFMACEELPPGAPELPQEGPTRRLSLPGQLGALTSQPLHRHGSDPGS

SMILES | hERG current change (%, negative = inhibition) at 10uM [%]
COc1cc(/C=N/NC(=O)c2ccoc2C)cc(OC)c1OC | 13.1
Cc1ccc(-c2nc(-c3nccc4ccccc34)oc2-c2ccccc2)cc1 | 15.3
O=C(c1ccccc1)N1CCN(c2ccc(NCc3ccc4c(c3)OCO4)cc2)CC1 | -12.2
Cc1oc(C)c(C(N)=O)c1C(N)=O | 5.58
CC(C)NC(=O)Cn1c(=O)c2c(ncn2Cc2ccccc2)n(Cc2ccccc2)c1=O | 2.66
O=C(c1cnn(-c2ccccc2)c1)c1cc(Br)ccc1O | 11.6
O=C(CSc1nnc(COc2ccc(Cl)cc2)o1)NC1CC2CCC1C2 (stereo not shown) | 11.5
CC(C)c1nc2sc3c(c2c(=O)[nH]1)CC(C)(C)OC3 | 17.7
CC(C)CN(C(=O)c1ccc(-n2cncn2)c([N+](=O)[O-])c1)C1CCS(=O)(=O)C1 (stereo not shown) | -12.9
Cc1ccc(SCCC(=O)N/N=C/c2ccccc2O)cc1 | 13.2
Br.CCCC1CC(=O)OC1(C)C(=O)CSc1n[nH]c(-c2ccccc2)n1 (stereo not shown) | -3.65
CCCC(=O)Nc1ccc(C(=O)NCc2ccccc2Cl)cc1 | 14.1
Oc1ccccc1/C=N/Nc1cccc2cccnc12 | -10.2
CCN(c1ccccc1)S(=O)(=O)c1ccc(Cl)c(NC(=O)CSc2ncn[nH]2)c1 | -1.32
CC(=O)Oc1cc(C)cc2oc(=O)cc(-c3ccccc3)c12 | -4.92
CC(=O)NCCC(=O)Nc1ncc(S(=O)(=O)c2ccc([N+](=O)[O-])cc2)s1 | 2.71
c1ccc(-c2nnc(CN3CCC4(CC3)OCCO4)o2)cc1 | 9.72
Cc1nc2cc(N3CCCCC3)c(NC(=O)c3cccnc3)cc2c(=O)n1Cc1ccccc1 | 0.806
Cl.Oc1ccc(C(c2nnnn2C2CCCCC2)N2CCOCC2)cc1 (stereo not shown) | 6.1
Cc1ccc(C2C(C#N)=C(N)Oc3c2sc2ccccc32)o1 (stereo not shown) | 5.67
Cc1ccc(N2CC(C(=O)Nc3ccc(S(=O)(=O)N4CCCC4)cc3)CC2=O)cc1C (stereo not shown) | 6.52
COc1ccc(/C=C/C(=O)Nc2cccc(S(=O)(=O)N3CCCC3)c2)cc1OC | -0.417

SMILES | hERG current change (%, negative = inhibition) at 10uM [%]
CCOc1cc(NC(=O)c2ccco2)c(OCC)cc1NC(=O)CCc1ccccc1OC | 3.6
CC(N=C1NS(=O)(=O)c2ccccc21)C(=O)OCC(=O)N(C)C1CCS(=O)(=O)C1 (stereo not shown) | -8.64
Cc1ccc2nc(C)c(C(=O)N/N=C/c3ccc(C(=O)O)cc3)cc2c1 | 15.5
CCOC(=O)c1c(NC(=O)C(C)S(=O)(=O)c2cn(CC)c3ccccc23)sc2c1CCCC2 (stereo not shown) | 8.15
O=C(NNC(=O)c1ccc2c(c1)OCO2)NC1CCCCC1 | 3.93
CCN1C(=O)/C(=C2\SC(=S)N(CCCOC)C2=O)c2ccccc21 | 5.52
COC(=O)c1cn(CC(=O)Nc2ccc(F)cc2)c2ccccc12 | 17.2
Cc1nc(SC2CC(=O)N(c3ccc([N+](=O)[O-])cc3)C2=O)nc2c1CCCC2 (stereo not shown) | -20.4
C#CCNC(=O)C1CCN(c2ccc(S(=O)(=O)N3CCOCC3)cc2Cl)CC1 | -6.39
C=CCn1c(SCC(=O)Nc2ncc(Cc3ccc(Br)cc3)s2)nnc1-c1ccncc1 | 11
O=C(NC(=S)Nc1ccccc1C(=O)O)c1cncc(Br)c1 | 23
Cc1cc(C)cc(N(CC(=O)NCCSc2ccccn2)S(=O)(=O)c2ccccc2)c1 | -33.2
COc1ccc(-c2oc3ncn(CCN4CCOCC4)c(=N)c3c2-c2ccc(OC)cc2)cc1 | -70.3
Cc1cc(C)c(NC(=O)CSc2nnc(-c3ccccn3)n2N)c(Cl)c1 | -1.42
Cc1ccc(NC(=O)CN(C)C(=O)c2cc3c(s2)CCCCC3)cc1 | 2.74
CCOCCCNC(=O)c1cn(CC)c2ccc(S(=O)(=O)N3CCC(C)CC3)cc2c1=O | -22.6
O=C(O)c1ccc(/C=N/N2CCN(Cc3cccc4ccccc34)CC2)cc1 | 14.6
COc1ccc(C2=NOC3(CC(=O)N(c4ccc5ccccc5c4)C3=O)C2)c(OC)c1 (stereo not shown) | 10
Cc1c(C(=O)N(C)CCCCN2CCOCC2)oc2c(F)cccc12 | 4.14
CC(=O)Nc1cccc(NC(=O)Cc2ccc3ccccc3c2)c1 | -2.03
O=C(NCc1c(Cl)cccc1Cl)c1ccc2nnsc2c1 | 8.96
